The source of these data is ChEMBL document CHEMBL4888484, “Replenishing the malaria drug discovery pipeline: Screening and hit evaluation of the MMV Hit Generation Library 1 (HGL1) against asexual blood stage Plasmodium falciparum ,using a nano luciferase reporter read-out” (2022).

Out of some 150,000 compounds screened, about 540 (0.36%) showed an effect of 50% or more. The list shows a part of the results.

The test system of the assay is Plasmodium falciparum. Description: Primary screen in NF54 nanoGlo assay, in single point, at 2uM, 72h; a lower Z score goes with more inhibition. Format: functional, Erythrocyte. Conditions: timepoint 72 hour.
With `CC1=C(C)CN(C(=O)c2cccnc2C)CC1`, the “% Inhibition” value turned out to be 0% and the Z score is 0.03.

As for `CNC(=O)[C@H](CC(C)C)NC(=O)c1scnc1C`, the “% Inhibition” value is -1% and the Z score was 0.25.

For `CC(C)c1cc(C(=O)N(Cc2ccncc2)C[C@@H]2CCC(=O)N2)n(C)n1`, the “% Inhibition” value is on record as -3% and the Z score worked out at 0.38.

Turning to `COc1ccc(-c2c3cnn(C(C)C)c3nc3[nH]c(=O)sc23)c(OC)c1`, the “% Inhibition” value is -12% and the Z score is 1.28.

Regarding `CC(NC(C)c1ccc(F)cc1F)c1nc2c(s1)CCC2` (stereo unspecified), the “% Inhibition” value is listed as -10% and the Z score is reported as 1.81.

Consider `Cc1cnc(CCN=C(N)N2CCCCCC2)nc1`, for which the “% Inhibition” value was 4% and the Z score was -0.62.

As to `Cc1n[nH]c(C2CN(CC(C)(O)c3ccccc3)CCO2)n1` (stereo unspecified), the “% Inhibition” value was -5% and the Z score amounted to 0.57.

Turning to `CC1CCN(C[C@H](O)Cn2ncc3ncccc3c2=O)CC1`, the “% Inhibition” value was -9% and the Z score is 1.19.

As to `CN(CC(=O)N1CCc2ccccc2C1)c1ccc(F)c(F)c1`, the “% Inhibition” value was -6% and the Z score is listed as 0.88.

Turning to `Nc1cc(-c2cc(NCc3ccncc3)nc3[nH]ccc23)ncn1`, the “% Inhibition” value is reported as -3% and the Z score amounted to 0.37.

`COc1nc2c(cc1CNC(=O)CCCC(C)C)C(=O)N(C1CCCC1)C2`: the “% Inhibition” value is on record as -11% and the Z score stood at 1.48.

`CCn1c(Cn2ncsc2=O)nc2c(F)cccc21`: the “% Inhibition” value is -9% and the Z score is 1.07.

For the compound `CN(C(=O)[C@H]1[C@@H]2C[C@@H]3[C@H]1C(=O)O[C@@H]3C2)c1ccccc1Cl`, the “% Inhibition” value is listed as -1% and the Z score was found to be 0.17.

Regarding `COc1nc(C)nc(N(C)Cc2nccs2)c1C`, the “% Inhibition” value was -6% and the Z score turned out to be 0.97.

On to `C=CCc1ccccc1OCCN(C)Cc1ccc(CO)o1`, for which the “% Inhibition” value is reported as -10% and the Z score came to 2.06.

On to `CCCCS(=O)(=O)N1CCC[C@H]1c1nn(CCC)c2c1COCC2`, for which the “% Inhibition” value is -15% and the Z score was 1.92.

Turning to `C=CCC[C@@H](CN(C)CCN(C)C)Oc1nccc(C(F)(F)F)n1`, the “% Inhibition” value is listed as -5% and the Z score is given as 0.9.

Consider `CCNC(=O)N(Cc1ccccc1OS(=O)(=O)c1ccc(OC)cc1)C[C@H]1CCCO1`, for which the “% Inhibition” value is listed as -11% and the Z score is given as 1.2.

Regarding `Cc1cc(NC(=O)C(=O)NCCc2ccc3c(ccn3C)c2)no1`, the “% Inhibition” value is -11% and the Z score turned out to be 2.03.

With `O=C(NCCCOc1ccc(F)cc1)c1ccncc1Cl`, the “% Inhibition” value is reported as -8% and the Z score worked out at 0.84.

With `C[C@]1(O)CCN(C(=O)c2ccc(F)cc2Cl)C[C@H]1O`, the “% Inhibition” value is given as 7% and the Z score is listed as -0.86.

Take `O=C1N[C@H]2C[C@@H](C(=O)NC[C@H]3O[C@H](CCOc4cc(-c5ccccc5)ccc41)CC[C@@H]3O)N(Cc1c[nH]cn1)C2`: the “% Inhibition” value is recorded as 9% and the Z score is listed as -1.01.

As for `CCn1ncnc1CN(C)C(C)C1CN(Cc2ccccc2)CCO1` (stereo unspecified), the “% Inhibition” value is given as 2% and the Z score is -0.26.

As to `CCOC(=O)N1CC[C@H](NC2(c3cccc(Cl)c3)CC2)C1`, the “% Inhibition” value is recorded as -14% and the Z score came to 2.65.

For the compound `O=C(NCc1ccc(N2CCCC2)cc1)c1ccccc1F`, the “% Inhibition” value is recorded as 4% and the Z score was -0.41.

Turning to `Nc1ccc(C(=O)c2ccc(Oc3ccccc3)c(N)c2)cc1`, the “% Inhibition” value is -10% and the Z score is reported as 1.48.

`Cc1ccc(-c2nnc(-c3cccnc3N3CCC4(CC3)OCCO4)o2)cc1`: the “% Inhibition” value was -19% and the Z score stood at 1.86.

As for `O=C(Nc1cccc(S(=O)(=O)NC2CC2)c1)C(=O)NC1CCCC1`, the “% Inhibition” value is -10% and the Z score was 1.61.

As to `Cc1ccnc(-n2nccc2NC(=O)[C@H]2CCC(=O)N2C)c1`, the “% Inhibition” value is listed as -9% and the Z score is 1.

Regarding `CC[C@@](C)(CNC(=O)c1c(C)ccn1C)NC(=O)c1c(C)ccn1C`, the “% Inhibition” value is -8% and the Z score was 0.8.

On to `O=C(O)c1cnc(N2CC3CCC2C3)s1` (stereo unspecified), for which the “% Inhibition” value is on record as 1% and the Z score is on record as -0.12.

Regarding `O=C1CCCN1CC(=O)N1CCO[C@@H](CCCc2ccccc2)C1`, the “% Inhibition” value was -4% and the Z score amounted to 0.69.

Consider `CC(C)OC[C@H]1CN(C(=O)c2cnn(-c3ccncc3)c2)CCO1`, for which the “% Inhibition” value is recorded as -5% and the Z score was 0.65.

Consider `Cc1cc(-c2ccc(C)c(S(=O)(=O)NCCN(CC(C)C)CC(C)C)c2)on1`, for which the “% Inhibition” value is on record as -1% and the Z score came out at 0.09.

In the case of `O=C(COCC(F)(F)F)N1CCC[C@H]1c1cccs1`, the “% Inhibition” value is recorded as 5% and the Z score is -0.64.

`Cc1ccc2oc(C(=O)N3CCO[C@H]4COCC[C@H]43)cc2n1`: the “% Inhibition” value amounted to 1% and the Z score is -0.26.

As to `COCCCCS(=O)(=O)N[C@@H](C)c1cccc(Cl)c1`, the “% Inhibition” value came out at 4% and the Z score is -0.71.

For `O=C(NCc1ccc2c(c1)OCO2)N1CC(n2cc(C3CC3)nn2)C1`, the “% Inhibition” value is recorded as -17% and the Z score is listed as 2.

Consider `C#CCN1CCCC[C@H]1C(=O)N1CCC(n2nnc3c2CCCC3)CC1`, for which the “% Inhibition” value was -10% and the Z score was 1.69.

Take `O=C(Nc1cccs1)N[C@H]1CO[C@@H](CN2CCC(F)(F)CC2)[C@@H]1O`: the “% Inhibition” value is listed as 7% and the Z score is on record as -0.8.

For the compound `Cc1cncc(CN2CCCCS2(=O)=O)c1`, the “% Inhibition” value was 14% and the Z score is -1.8.

Turning to `CCc1ncc(CNCC2(CC(C)C)CCC2)cn1`, the “% Inhibition” value is listed as -8% and the Z score amounted to 1.08.

As to `COc1ccccc1C(CNC(C)c1cc(C)n(C)n1)OC(C)C` (stereo unspecified), the “% Inhibition” value is recorded as 0% and the Z score stood at 0.01.

A word on the % Inhibition: it is the change of the read-out against control, counted positive when it falls.
